{"source": "the supplement of paper PMC11417369", "note": "± gives the standard deviation of the averaged measurements. This is one part of the list.", "data": [{"system": "PfAP2-LT AP2 domain (GST-tagged)", "assay": "gcPBM binding intensity (ln(normalized median fluorescence intensity)); higher = stronger DNA binding", "summary_of_the_method": "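Each value is the highest Masliner-normalised natural-log median intensity across replicate spots of either orientation of a probe. The probes were primer-extended double-stranded 36-bp intergenic genomic sequences on an Agilent 4 × 180k array, alongside negative controls, exposed for 1 h to GST-tagged P. falciparum DNA-binding domains expressed in E. coli. Bound protein was picked up with Alexa488 anti-GST antibody and scanned at 488 nm.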", "values": [{"sequence": "TACCATGTTCAAATTACACACATATAATGTAATATA [CACACA_site5150]", "gcPBM binding intensity (ln)": "8.9 ± 0.33"}, {"sequence": "ATTAAGTTCAAATGTAGTACGTGTAAAAAAAAAAAA [XGTACX_site1578]", "gcPBM binding intensity (ln)": "8.79 ± 0.42"}, {"sequence": "TTTATATATGTAAATGCACACATATGTGTATATACT [CACACA_site8493]", "gcPBM binding intensity (ln)": "9.24 ± 0.45"}, {"sequence": "AAAATAAATAAATAAATAAATATATATATATATATA [XGTACX_negctrl_site345]", "gcPBM binding intensity (ln)": "9.16 ± 0.3"}, {"sequence": "TATAGGTATATATTATGTACTTATAATTATATAGAT [XGTACX_site1912]", "gcPBM binding intensity (ln)": "8.62 ± 0.43"}, {"sequence": "TTATTACATGTTACTTAACACACATCTGGTGAAATA [CACACA_site7939]", "gcPBM binding intensity (ln)": "8.88 ± 0.47"}, {"sequence": "GGAAAGACAGTTCACAGTACCCAGTAAACTCTACGG [XGTACX_site2557]", "gcPBM binding intensity (ln)": "8.93 ± 0.51"}, {"sequence": "AAAATATAGTAATATATATATGTATATTATTTGTGG [CACACA_negctrl_site1590]", "gcPBM binding intensity (ln)": "8.73 ± 0.47"}, {"sequence": "GGGTCAAGTAAGCTGTTCCTCTTTTTCTTTCTCACT [GTGCAC_negctrl_site473]", "gcPBM binding intensity (ln)": "9.09 ± 0.5"}, {"sequence": "TGTCTTTAAATTTCTCAACACACAGTTATAAAAAAT [CACACA_site8930]", "gcPBM binding intensity (ln)": "8.46 ± 0.42"}, {"sequence": "TATAAATTTAAAATGACACACACTAATATTATTTAA [CACACA_site8334]", "gcPBM binding intensity (ln)": "8.96 ± 0.36"}, {"sequence": "ATACGATTGAAACATTGTACATGAATATAAAAAAAT [XGTACX_site5704]", "gcPBM binding intensity (ln)": "8.95 ± 0.42"}, {"sequence": "TTTATTTATAGACACACACACAAAAAAAAAAAAAAA [CACACA_site7280]", "gcPBM binding intensity (ln)": "9.1 ± 0.42"}, {"sequence": "TTGTATATATATGGAAAAATATATATATATATATAT [GTGCAC_negctrl_site591]", "gcPBM binding intensity (ln)": "9.25 ± 0.45"}, {"sequence": "TTTTTTTTTTTTTTTATAAAAGATAATTTTTTTTTA [CACACA_negctrl_site133]", "gcPBM binding intensity (ln)": "7.99 ± 0.4"}, {"sequence": "CATTTATATTATAAATGTACAAAGTTCGTTTGTTCC [XGTACX_site1305]", "gcPBM binding intensity (ln)": "8.7 ± 0.5"}, {"sequence": "TCAAAGCACACATACACACACATATAGATTTATATA [CACACA_site6272]", "gcPBM binding intensity (ln)": "9.73 ± 0.16"}, {"sequence": "TCTTCATAAAAATAAAGTACATTATATATATAAATA [XGTACX_site3775]", "gcPBM binding intensity (ln)": "8.32 ± 0.5"}, {"sequence": "TAAATAAATATATATTCACACACAAACATATATATA [CACACA_site9332]", "gcPBM binding intensity (ln)": "9.2 ± 0.26"}, {"sequence": "TAAACGTTAGTATGTGTGCACATTAGTAATTTAAAA", "gcPBM binding intensity (ln)": "9.13 ± 0.44"}, {"sequence": "ATTAATATTATTAGAAGTACTAATAGTAGTATAACT [XGTACX_site1325]", "gcPBM binding intensity (ln)": "8.69 ± 0.33"}, {"sequence": "TTTTTATTATTCTTAAGGATATAACAAAAAAGAAAA [XGTACX_negctrl_site584]", "gcPBM binding intensity (ln)": "8.04 ± 0.36"}, {"sequence": "TTCTAAAAAAATAAAATTATCAAGGTTTTTAAACGT [CACACA_negctrl_site308]", "gcPBM binding intensity (ln)": "8.37 ± 0.46"}, {"sequence": "ACTCTTGATCTGAATGCACACAATAAATTATATAAA [CACACA_site1438]", "gcPBM binding intensity (ln)": "8.79 ± 0.33"}, {"sequence": "ATATATTATATATATTGTACATGTAAAATTTTAAAA [XGTACX_site7197]", "gcPBM binding intensity (ln)": "8.79 ± 0.45"}, {"sequence": "TATGTATTTAAATTAACACACATATGTGGTTAATAG [CACACA_site5697]", "gcPBM binding intensity (ln)": "8.8 ± 0.31"}, {"sequence": "AAAAATTTGGCATACACACACACACCCACACCCACA [CACACA_site587]", "gcPBM binding intensity (ln)": "10.03 ± 0.042"}, {"sequence": "ACATATATATATATATATATATATATATCATTATGT [CACACA_negctrl_site724]", "gcPBM binding intensity (ln)": "9.51 ± 0.26"}, {"sequence": "ATTTAAAAAAAAAAAACACACATGTGAATAGAAAAG [CACACA_site3323]", "gcPBM binding intensity (ln)": "8.94 ± 0.42"}, {"sequence": "TCTAAAAATAAGAACACACACATATAAGCATATAAA [CACACA_site2274]", "gcPBM binding intensity (ln)": "9.29 ± 0.37"}, {"sequence": "AAAACGCTACATAATTGTACATGTAGAAATAAAAGC [XGTACX_site2895]", "gcPBM binding intensity (ln)": "9.34 ± 0.4"}, {"sequence": "TACTGCCTTCCATACCCACACACTTCCCATATATTT [CACACA_site2705]", "gcPBM binding intensity (ln)": "9.21 ± 0.45"}, {"sequence": "AGTATAATAATATTTACACACGCATATGTTATATAT [CACACA_site1476]", "gcPBM binding intensity (ln)": "9.25 ± 0.27"}, {"sequence": "CATACAAATTAATATGTACACACAAATATATATATA [CACACA_site8605]", "gcPBM binding intensity (ln)": "9.18 ± 0.32"}, {"sequence": "TTTTACAATAATAAGTAGATCTAAATAAAGATTTAA [GTGCAC_negctrl_site547]", "gcPBM binding intensity (ln)": "8.38 ± 0.59"}, {"sequence": "AGTAGTCTGGAGAAAAGTACATAGTATCTGGTAACC [XGTACX_site2024]", "gcPBM binding intensity (ln)": "8.81 ± 0.58"}, {"sequence": "TTCCAAAATTGCACATGTACAAAATTCTCCAATATG [XGTACX_site3419]", "gcPBM binding intensity (ln)": "8.68 ± 0.41"}, {"sequence": "TTTATATTATTTAATGAGAAATAATTATAAACAATT [TGCATGCA_negctrl_site65]", "gcPBM binding intensity (ln)": "8.15 ± 0.36"}, {"sequence": "TTTTTTTTTTTTTTTTGTACATATTTTAATTTGTTT [XGTACX_site6297]", "gcPBM binding intensity (ln)": "8.46 ± 0.5"}, {"sequence": "AAAAAAAAAAAATAATGTACATATGTATTTGAGAAA [XGTACX_site3572]", "gcPBM binding intensity (ln)": "8.71 ± 0.55"}, {"sequence": "TATGTATATATATATATATATATATATATATATATA [TGCATGCA_negctrl_site491]", "gcPBM binding intensity (ln)": "9.71 ± 0.13"}, {"sequence": "ATGGCCACTGTGAAATGTACAAAAAAAAAATACAAT [XGTACX_site2874]", "gcPBM binding intensity (ln)": "9.05 ± 0.61"}, {"sequence": "TATGTGCACCCATGTACATGCGGACATATGTTATAT [TGCATGCA_site383]", "gcPBM binding intensity (ln)": "9.04 ± 0.42"}, {"sequence": "ATTTCCTTTTGTTTCAGTACATAATTTTTTTTTTTT [XGTACX_site4842]", "gcPBM binding intensity (ln)": "8.83 ± 0.45"}]}]}
